Assay results: patent US12286458 (NAVIGO PROTEINS, dated 2025)
Changes are numbered by the printed parent chain.

Biological target: acid alpha glucosidase (GAA) (UniProt P10253)
Assay: SPR, BIAcore 3000, biotinylated GAA immobilized on chip, binder as analyte, Langmuir 1:1
From the text: 500-1500 RU GAA (ON-ligand) was immobilized on a CM-5 sensor chip (GE Healthcare); the chip was equilibrated with SPR running buffer. GAA was biotinylated with Sulfo-NHS-Biotin standard reagent and purified via size exclusion chromatography (Superdex 200). The target protein was immobilized by injection of a biotinylated target on Streptavidin coated sensor chip. Upon ligand binding, protein analyte was accumulated on the surface increasing the refractive index. This change in the refractive index was measured in real time and plotted as response or resonance units versus time. The analytes were applied to the chip in serial dilutions with a flow rate of 30 μl/min. The association was performed for 120 seconds and the dissociation for 360 seconds. After each run, the chip surface was regenerated with 30 μl regeneration buffer (10 mM Glycine) and equilibrated with running buffer. Binding studies were carried out by the use of the BIAcore 3000 (GE Healthcare); data evaluation was operated via the BIAevaluation 3.0 software, provided by the manufacturer, by the use of the Langmuir 1:1 model (RI=0). Evaluated dissociation constants (K_D) were standardized against GAA and indicated. Shown is the change in refractive index measured in real time and plotted as response or resonance unit [RU] versus time [sec].

B1: GAA binding protein SEQ ID NO: 1 (192403) (designed binder)
chain: IAAKFDMKQAWADHFILELPNLTEEQRNAFRQSLSDDPSVSDLVLLQAQKLNQMQAPK
  Kd: 26.5 nM

B2: GAA binding protein SEQ ID NO: 2 (192402) (designed binder)
chain: B1 chain with L46A, M54S
  Kd: 23 nM
